Data on 94 sequences can be found in paper PMC10668032.

The list shows a part of the results. At the low end of the ranking the order means little.

The experiment has as its target SIX1-Q177R homeodomain (UniProt Q15475). In words: universal protein binding microarray. The following applies: Universal all-10-mer PBM (8x60K, AMADID 030236), 300 nM GST-tagged protein, Alexa Fluor 488 anti-GST; buffer, salt, pH and temperature not stated; high values mean tight binding; most listed sequences are background and not binding sites; double strand, one strand shown.
AGAGGGCC: the binding signal is -0.287 E-score.

In the case of CAATGAAA, the binding signal is -0.246 E-score.

In the case of CTAATCGC, the binding signal is -0.106 E-score.

Consider CCTAGGAG, for which the binding signal was determined as 0.123 E-score.

As to AAGCCGTG, the binding signal came out at 0.0483 E-score.

As to ATCATTCG, the binding signal is -0.171 E-score.

For the sequence CCATTCAA, the binding signal is 0.112 E-score.

ACAATACG: the binding signal was -0.102 E-score.

Turning to CTCTGGAC, the binding signal was -0.158 E-score.

Regarding ACGTACTA, the binding signal is -0.0389 E-score.

As to GCTCAGCC, the binding signal was -0.149 E-score.

In the case of AAAAAAAG, the binding signal was -0.0847 E-score.

With AATATGAC, the binding signal was determined as 0.12 E-score.

In the case of AGACAAAA, the binding signal was -0.216 E-score.

As to TCCCAGAA, the binding signal was -0.0942 E-score.

On to ACATAGCC, for which the binding signal is -0.0606 E-score.

Take CACCCAAA: the binding signal came to 0.255 E-score.

Consider CCTCTACG, for which the binding signal was determined as 0.0541 E-score.

Regarding GCGCATAC, the binding signal amounted to 0.00625 E-score.

For the sequence CAAATACC, the binding signal is -0.157 E-score.

As for ATTATAAG, the binding signal is -0.152 E-score.

On to CAGGTTAA, for which the binding signal is 0.0854 E-score.

For the sequence AAGTCCAT, the binding signal came to 0.0108 E-score.

Take CCCAACTC: the binding signal was determined as 0.0389 E-score.

Take TACGGCCA: the binding signal was -0.247 E-score.

On to ACAGACAG, for which the binding signal is -0.087 E-score.

With CAAGCGGA, the binding signal stood at 0.00792 E-score.

For AAGCGCGG, the binding signal was -0.000695 E-score.

On to AATGTTTC, for which the binding signal is -0.286 E-score.

On to GAATCTGA, for which the binding signal is 0.149 E-score.

As to CCCGTTAC, the binding signal is 0.024 E-score.

For the sequence AGCTCCAA, the binding signal is -0.196 E-score.

As for AGGCCTCG, the binding signal was -0.227 E-score.

Regarding GTCGTAGA, the binding signal is -0.115 E-score.

GCTTCTCC: the binding signal is -0.206 E-score.

With GGTATCAC, the binding signal amounted to 0.399 E-score.

For the sequence CCGTGGCC, the binding signal was -0.0282 E-score.

On to CTATATAA, for which the binding signal was -0.151 E-score.

In the case of ATGAATGG, the binding signal is -0.241 E-score.

As for ATGATGTG, the binding signal was -0.25 E-score.

As to GAACCATC, the binding signal is -0.254 E-score.

Consider TCTGAAGA, for which the binding signal is -0.119 E-score.

On to CGTTTCCC, for which the binding signal is -0.171 E-score.

Turning to CCCATCTC, the binding signal was 0.0316 E-score.

For AGTTCGGC, the binding signal was -0.109 E-score.

As for TGGCCGAA, the binding signal is -0.0823 E-score.

As for CAACACGA, the binding signal worked out at 0.328 E-score.

In the case of CCTTGGTA, the binding signal is -0.0495 E-score.

Regarding GGTCGAAC, the binding signal came to 0.228 E-score.

As for AGAGGCCC, the binding signal was -0.229 E-score.

Turning to CTCCGCGC, the binding signal was -0.0047 E-score.

Consider ATGGTGGA, for which the binding signal was 0.0419 E-score.

For CAATAGTC, the binding signal was -0.184 E-score.

GCCCGTTA: the binding signal was -0.0643 E-score.

In the case of CACGGTTC, the binding signal is 0.169 E-score.

Regarding ACTTGAGC, the binding signal is -0.198 E-score.

Take CCTCGTAG: the binding signal was -0.00971 E-score.

Consider CCTTCGCC, for which the binding signal was 0.0126 E-score.

As for CAATGTCG, the binding signal is -0.053 E-score.

Consider CACCTCAC, for which the binding signal was found to be 0.354 E-score.

For ACCGTGAG, the binding signal is 0.0809 E-score.

For the sequence CGGTGAGC, the binding signal was -0.016 E-score.

For the sequence CCTTTAGA, the binding signal turned out to be 0.0195 E-score.

For CTAGCGAG, the binding signal is -0.112 E-score.

With AAGTGTAT, the binding signal was 0.317 E-score.

For the sequence TCAACAAA, the binding signal came out at 0.0214 E-score.

Consider CCGGCGGA, for which the binding signal turned out to be 0.129 E-score.

Regarding CCAAGGCG, the binding signal was 0.0015 E-score.

Regarding ACTCGACA, the binding signal was found to be 0.226 E-score.

In the case of AACACTAT, the binding signal is 0.295 E-score.

As for ATACGTAA, the binding signal is -0.33 E-score.

For the sequence AACATCCG, the binding signal came out at 0.0408 E-score.

Regarding GCTACCCA, the binding signal was 0.0437 E-score.

On to ATTTGTGG, for which the binding signal was -0.0213 E-score.

As for CCCGGAAC, the binding signal turned out to be 0.099 E-score.

For AAAAAAGA, the binding signal is -0.131 E-score.

Regarding GGTCCCGA, the binding signal was -0.141 E-score.

With TCCGGACA, the binding signal is 0.107 E-score.

Consider CGCCGACA, for which the binding signal turned out to be 0.209 E-score.

AGTTTGGG: the binding signal is -0.0462 E-score.

For CGTCCCAC, the binding signal stood at 0.0541 E-score.

For CAAGCTGG, the binding signal stood at 0.00327 E-score.

Consider GTACCGTA, for which the binding signal was -0.082 E-score.

Regarding CCCTCTTA, the binding signal is -0.0686 E-score.

Consider CTCCCGCA, for which the binding signal worked out at 0.155 E-score.

Take GTATTTCA: the binding signal was -0.0378 E-score.

On to AATCATCA, for which the binding signal is -0.305 E-score.

Turning to CACGTGCG, the binding signal turned out to be 0.171 E-score.

In the case of CCAACTAA, the binding signal is -0.108 E-score.

Consider TGCGGAAA, for which the binding signal was -0.116 E-score.

For the sequence ATGTACTG, the binding signal was -0.135 E-score.

Turning to GTAGATGA, the binding signal was -0.0743 E-score.

In the case of AAATACGC, the binding signal was -0.117 E-score.

Regarding GTTCAGTA, the binding signal amounted to 0.107 E-score.
